Test results from the supplement of paper PMC12582362.
Counter-ions that a name gives are not always drawn. Among all 1,500 compounds or so, about 30 (2%) showed activity.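 The calls were made as follows: active = robust z-score below -2; a few such results were not called.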 Some of the results follow.

Each molecule was assayed on optoTopBP1 Flp-In 293 T-REx (HEK293) cells (assay: light-induced TopBP1 condensate (nuclear foci) count, plate-normalised robust z-score vs non-control wells; higher = more TopBP1 condensates (negative = condensation inhibitor), active = hit call of the paper). Settings: 10 µM; incubation time 2 h.

Compound	light-induced TopBP1 condensate (z-score)
Cc1cc(C(C)(C)C)c(O)c(C)c1CC1=NCCN1 [Oxymetazoline hydrochloride]	inactive: -0.78
CN(C)CCCN1c2ccccc2Sc2ccccc21 [Promazine hydrochloride]	inactive: -0.124
NS(=O)(=O)c1cc(C(=O)O)cc(N2CCCC2)c1Oc1ccccc1 [Piretanide]	inactive: 0.111
COc1ccc([C@@H]2CC(=O)c3c(O)cc(O[C@@H]4O[C@H](CO[C@@H]5O[C@@H](C)[C@H](O)[C@@H](O)[C@H]5O)[C@@H](O)[C@H](O)[C@H]4O)cc3O2)cc1O [Hesperidin]	inactive: 0.579
CC(C)(C(=O)O)c1ccc(C(O)CCCN2CCC(C(O)(c3ccccc3)c3ccccc3)CC2)cc1 (configuration not stated) [Fexofenadine hydrochloride]	inactive: 0.896
Cc1c(C)c2c(c(C)c1O)CCC(C)(COc1ccc(CC3SC(=O)NC3=O)cc1)O2 (configuration not stated) [Troglitazone]	inactive: -0.719
COC(c1ccccc1)(c1ccccc1)[C@H](Oc1nc(C)cc(C)n1)C(=O)O [Ambrisentan]	inactive: 0.0185
COC(=O)C1=C(C)NC(C)=C(C(=O)OCCN2CCN(C(c3ccccc3)c3ccccc3)CC2)C1c1cccc([N+](=O)[O-])c1 (configuration not stated) [Manidipine Dihydrochloride]	inactive: -0.172
CC(=O)Nc1ccccc1 [Acetanilide]	inactive: -0.756
CC(C(=O)O)c1ccc2c(c1)Cc1cccnc1O2 (configuration not stated) [Pranoprofen]	inactive: 1.25
CSc1ccc2c(c1)C(N1CCN(C)CC1)Cc1ccccc1S2 (configuration not stated) [Methiothepin maleate]	inactive: -0.0722
COC(=O)Nc1nc2cc(C(=O)c3ccccc3)ccc2[nH]1 [Mebendazole]	inactive: -1.07
CC(C)c1ccc2oc3nc(N)c(C(=O)O)cc3c(=O)c2c1 [Amlexanox]	inactive: -0.968
CC1(C)S[C@@H]2[C@H](NC(=O)[C@H](NC(=O)N3CCNC3=O)c3ccccc3)C(=O)N2[C@H]1C(=O)O [Azlocillin sodium salt]	inactive: 0.586
Cc1cc2c(cc1S(N)(=O)=O)S(=O)(=O)CCC2 [Meticrane]	inactive: 1.16
NCCNCCNCCNCCN [Tetraethylenepentamine pentahydrochloride]	inactive: 0.924
CN1C(C)(C)CCCC1(C)C [Pempidine]	inactive: 1.62
Cc1onc(-c2c(Cl)cccc2Cl)c1C(=O)N[C@@H]1C(=O)N2[C@@H]1SC(C)(C)[C@@H]2C(=O)O [Dicloxacillin sodium salt hydrate]	inactive: 0.0668
CN(C)/N=N/c1[nH]cnc1C(N)=O [Dacarbazine]	inactive: 0.0424
CC[N+](C)(C)Cc1ccccc1Br [Bretylium tosylate]	inactive: -0.232
C[N+](C)(C)CCCCCC[N+](C)(C)C [Hexamethonium dibromide dihydrate]	inactive: -0.0606

Compound	light-induced TopBP1 condensate (z-score)
CC1CC(OC(=O)C(O)c2ccccc2)CC(C)(C)C1 (configuration not stated) [Cyclandelate]	inactive: 0.482
O=C(O)c1cccnc1Nc1cccc(C(F)(F)F)c1 [Niflumic acid]	inactive: -0.811
COc1ccc(C(Cl)=C(c2ccc(OC)cc2)c2ccc(OC)cc2)cc1 [Chlorotrianisene]	inactive: 0.497
Cc1oncc1C(=O)Nc1ccc(C(F)(F)F)cc1 [Leflunomide]	inactive: 0.943
CCOC(=O)c1c(N)sc2c1CCN(Cc1ccccc1)C2 [Tinoridine hydrochloride]	inactive: 0.308
CCOC(=O)[C@H](CCc1ccccc1)N[C@@H](C)C(=O)N1Cc2ccccc2C[C@H]1C(=O)O [Quinapril hydrochloride]	inactive: 0.0394
CC(CCc1ccccc1)NCC(O)c1ccc(O)c(C(N)=O)c1 (configuration not stated) [Labetalol hydrochloride]	inactive: -0.988
Fc1ccc(C(c2ccc(F)cc2)N2CCN(C/C=C/c3ccccc3)CC2)cc1 [Flunarizine dihydrochloride]	inactive: -0.547
Cc1ccc(Nc2c(F)cccc2Cl)c(CC(=O)O)c1 [Lumiracoxib]	inactive: 0.38
CC(C)(CO)[C@@H](O)C(=O)NCCCC(=O)O [Hopantenate calcium]	inactive: 0.00401
NC(N)=Nc1nc(CSCCN/C=N/S(=O)(=O)c2ccc(Br)cc2)cs1 [Ebrotidine]	inactive: -0.733
CCCCC(=O)O[C@H]1CC[C@H]2[C@@H]3CCc4cc(O)ccc4[C@H]3CC[C@]12C [Estradiol Valerate]	inactive: 0.522
N=C(N)c1ccc(OCCCCCOc2ccc(C(=N)N)cc2)cc1 [Pentamidine isethionate]	inactive: 0.291
Cn1c(NCCN(CCO)CCCc2ccc([N+](=O)[O-])cc2)cc(=O)n(C)c1=O [Nifekalant]	inactive: -0.0816
OCCOCCN1CCN(C2=Nc3ccccc3Sc3ccccc32)CC1 [Quetiapine hemifumarate]	inactive: 0.443
CCC(=O)O[C@@H](O[P@](=O)(CCCCc1ccccc1)CC(=O)N1C[C@H](C2CCCCC2)C[C@H]1C(=O)O)C(C)C [Fosinopril]	inactive: -0.0752
CC1(C)S[C@@H]2[C@H](NC(=O)[C@H](N)c3ccc(O)cc3)C(=O)N2[C@H]1C(=O)O [Amoxicillin]	inactive: 0.718
Nc1nc(Cl)nc2c1ncn2[C@H]1C[C@H](O)[C@@H](CO)O1 [Cladribine]	inactive: -1.65
CN[C@@H]1[C@H](O[C@H]2[C@H](O[C@H]3[C@H](O)[C@@H](O)[C@H](N=C(N)N)[C@@H](O)[C@@H]3N=C(N)N)O[C@@H](C)[C@]2(O)C=O)O[C@@H](CO)[C@H](O)[C@H]1O [Streptomycin sulfate]	inactive: -0.213
CCCCCCC[N+](CC)(CC)CCCCc1ccc(Cl)cc1 [Clofilium tosylate]	inactive: -1.04
CCOC(=O)C1=C[C@@H](OC(CC)CC)[C@H](NC(C)=O)[C@@H](N)C1 [Oseltamivir phosphate]	inactive: 1.27
